# This is one part of the list.
# What was measured:
# Assay in all cases: glycan array binding signal (z-score within array); higher = stronger binding
# Details in all cases: glycan notation: IUPAC condensed, linker removed
# [1] = molecular target: Gal(b1-3)[Fuc(a1-4)]GlcNAc(b1-3)Gal(b1-4)[Fuc(a1-3)]GlcNAc
# Outline: (§1)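 Negative Z-scores can be read as non-binding. The Z-score is calculated within each array and then averaged across arrays of one protein sequence at different concentrations or buffers and across linkers. Arrays, 3228 in all, were curated from the Consortium for Functional Glycomics database and kept only where the protein sequence was available.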
# [2] = molecular target: Gal(b1-3)[GlcNAc(b1-6)]GalNAc
# Outline: as §1
# [3] = molecular target: Gal(b1-3)[Neu5Ac(a2-6)]GalNAc
# Outline: as §1
# [4] = molecular target: Gal(b1-3)[Neu5Ac(a2-6)]GlcNAc(b1-6)Gal(b1-4)Glc
# Outline: as §1
# [5] = molecular target: Gal(b1-3)[Neu5Ac(b2-6)]GalNAc
# Outline: as §1
# [6] = molecular target: Gal(b1-4)GalNAc(a1-3)[Fuc(a1-2)]Gal(b1-4)GlcNAc
# Outline: as §1
# [7] = molecular target: Gal(b1-4)GalNAc(b1-3)[Fuc(a1-2)]Gal(b1-4)GlcNAc
# Outline: as §1
# Gal(b1-4)Glc = molecular target: Gal(b1-4)Glc
# Outline: as §1
# Gal(b1-4)Glc6S = molecular target: Gal(b1-4)Glc6S
# Outline: as §1
# Gal(b1-4)GlcNAc = molecular target: Gal(b1-4)GlcNAc
# Outline: as §1
# [8] = molecular target: Gal(b1-4)GlcNAc(b1-2)Man(a1-3)[Gal(b1-4)GlcNAc(b1-2)Man(a1-6)]Man(b1-4)GlcNAc(b1-4)GlcNAc
# Outline: as §1
# [9] = molecular target: Gal(b1-4)GlcNAc(b1-3)Gal(b1-4)Glc
# Outline: as §1
# [10] = molecular target: Gal(b1-4)GlcNAc(b1-3)Gal(b1-4)GlcNAc
# Outline: as §1
# [11] = molecular target: Gal(b1-4)GlcNAc(b1-3)Gal(b1-4)GlcNAc(b1-3)Gal(b1-4)GlcNAc
# Outline: as §1
# [12] = molecular target: Gal(b1-4)GlcNAc(b1-3)Gal(b1-4)[Fuc(a1-3)]GlcNAc(b1-3)Gal(b1-4)[Fuc(a1-3)]GlcNAc
# Outline: as §1
# [13] = molecular target: Gal(b1-4)GlcNAc(b1-3)GalNAc
# Outline: as §1
# [14] = molecular target: Gal(b1-4)GlcNAc(b1-3)[Gal(b1-4)GlcNAc(b1-6)]GalNAc
# Outline: as §1
# [15] = molecular target: Gal(b1-4)GlcNAc(b1-6)Gal(b1-4)GlcNAc(b1-6)GalNAc
# Outline: as §1
# [16] = molecular target: Gal(b1-4)GlcNAc(b1-6)GalNAc
# Outline: as §1
# [17] = molecular target: Gal(b1-4)GlcNAc(b1-6)[Gal(b1-3)]GalNAc
# Outline: as §1
# Gal3S(b1-3)GalNAc = molecular target: Gal3S(b1-3)GalNAc
# Outline: as §1
# Gal3S(b1-3)GlcNAc = molecular target: Gal3S(b1-3)GlcNAc
# Outline: as §1
# [18] = molecular target: Gal3S(b1-3)[Fuc(a1-4)]GlcNAc
# Outline: as §1
# Gal3S(b1-4)Glc = molecular target: Gal3S(b1-4)Glc
# Outline: as §1
# Gal3S(b1-4)Glc6S = molecular target: Gal3S(b1-4)Glc6S
# Outline: as §1
# Gal3S(b1-4)GlcNAc = molecular target: Gal3S(b1-4)GlcNAc
# Outline: as §1
# Gal3S(b1-4)GlcNAc6S = molecular target: Gal3S(b1-4)GlcNAc6S
# Outline: as §1
# Gal3S6S(b1-4)GlcNAc = molecular target: Gal3S6S(b1-4)GlcNAc
# Outline: as §1
# Gal3S6S(b1-4)GlcNAc6S = molecular target: Gal3S6S(b1-4)GlcNAc6S
# Outline: as §1
# Gal4S(b1-4)GlcNAc = molecular target: Gal4S(b1-4)GlcNAc
# Outline: as §1
# Gal4S6S(b1-4)GlcNAc = molecular target: Gal4S6S(b1-4)GlcNAc
# Outline: as §1
# Gal6S(b1-4)Glc = molecular target: Gal6S(b1-4)Glc
# Outline: as §1
# Gal6S(b1-4)Glc6S = molecular target: Gal6S(b1-4)Glc6S
# Outline: as §1
# Gal6S(b1-4)GlcNAc = molecular target: Gal6S(b1-4)GlcNAc
# Outline: as §1
# GalNAc(a1-3)Gal = molecular target: GalNAc(a1-3)Gal
# Outline: as §1
# GalNAc(a1-3)GalNAc = molecular target: GalNAc(a1-3)GalNAc
# Outline: as §1
# [19] = molecular target: GalNAc(b1-3)Gal(a1-4)Gal(b1-4)GlcNAc
# Outline: as §1
# GalNAc(b1-3)GalNAc = molecular target: GalNAc(b1-3)GalNAc
# Outline: as §1
# GalNAc(b1-4)GlcNAc = molecular target: GalNAc(b1-4)GlcNAc
# Outline: as §1
# Glc(a1-4)Glc = molecular target: Glc(a1-4)Glc
# Outline: as §1
# Glc(a1-6)Glc(a1-6)Glc = molecular target: Glc(a1-6)Glc(a1-6)Glc
# Outline: as §1
# Glc(b1-4)Glc = molecular target: Glc(b1-4)Glc
# Outline: as §1
# Glc(b1-6)Glc = molecular target: Glc(b1-6)Glc
# Outline: as §1
# GlcA(b1-3)Gal = molecular target: GlcA(b1-3)Gal
# Outline: as §1
# GlcA(b1-6)Gal = molecular target: GlcA(b1-6)Gal
# Outline: as §1
# [20] = molecular target: GlcNAc(a1-3)Gal(b1-4)GlcNAc
# Outline: as §1
# [21] = molecular target: GlcNAc(a1-6)Gal(b1-4)GlcNAc
# Outline: as §1
# [22] = molecular target: GlcNAc(b1-2)Gal(b1-3)GalNAc
# Outline: as §1
# [23] = molecular target: GlcNAc(b1-2)Man(a1-3)[GlcNAc(b1-2)Man(a1-6)]Man(b1-4)GlcNAc(b1-4)GlcNAc
# Outline: as §1
# GlcNAc(b1-3)Gal = molecular target: GlcNAc(b1-3)Gal
# Outline: as §1
# [24] = molecular target: GlcNAc(b1-3)Gal(b1-3)GalNAc
# Outline: as §1
# GlcNAc(b1-3)Gal(b1-4)Glc = molecular target: GlcNAc(b1-3)Gal(b1-4)Glc
# Outline: as §1
# [25] = molecular target: GlcNAc(b1-3)Gal(b1-4)GlcNAc
# Outline: as §1
# [26] = molecular target: GlcNAc(b1-3)Gal(b1-4)GlcNAc(b1-3)Gal(b1-4)GlcNAc
# Outline: as §1
# GlcNAc(b1-3)GalNAc = molecular target: GlcNAc(b1-3)GalNAc
# Outline: as §1
# [27] = molecular target: GlcNAc(b1-3)[GlcNAc(b1-6)]Gal(b1-4)GlcNAc
# Outline: as §1
# [28] = molecular target: GlcNAc(b1-3)[GlcNAc(b1-6)]GalNAc
# Outline: as §1
# [29] = molecular target: GlcNAc(b1-3)[GlcNAc(b1-6)]GlcNAc(b1-4)GlcNAc
# Outline: as §1
# [30] = molecular target: GlcNAc(b1-4)Gal(b1-4)GlcNAc
# Outline: as §1
# [31] = molecular target: GlcNAc(b1-4)GlcNAc(b1-4)GlcNAc
# Outline: as §1
binder,measurement,setting,value
"TREM-2 (Mus musculus), Q99NH8 (protein) MGPLHQFLLLLITALSQALNTTVLQGMAGQSLRVSCTYDALKHWGRRKAWCRQLGEEGPCQRVVSTHGVWLLAFLKKRNGSTVIADDTLAGTVTITLKNLQAGDAGLYQCQSLRGREAEVLQKVLVEVLEDPLDDQDAGDLWVPEESSSFEGAQVEHSTSRNQETSFPPTSILLLLACVLLSKFLAASILWAVARGRQKPGTPVVRGLDCGQDAGHQLQILTGPGGT",glycan array binding signal (z-score),[1],-0.371
same,glycan array binding signal (z-score),[2],-0.349
same,glycan array binding signal (z-score),[3],-0.257
same,glycan array binding signal (z-score),[4],-0.282
same,glycan array binding signal (z-score),[5],-0.18
same,glycan array binding signal (z-score),[6],-0.214
same,glycan array binding signal (z-score),[7],-0.381
same,glycan array binding signal (z-score),Gal(b1-4)Glc,-0.273
same,glycan array binding signal (z-score),Gal(b1-4)Glc6S,-0.126
same,glycan array binding signal (z-score),Gal(b1-4)GlcNAc,-0.424
same,glycan array binding signal (z-score),[8],-0.308
same,glycan array binding signal (z-score),[9],-0.274
same,glycan array binding signal (z-score),[10],-0.099
same,glycan array binding signal (z-score),[11],-0.287
same,glycan array binding signal (z-score),[12],-0.261
same,glycan array binding signal (z-score),[13],-0.383
same,glycan array binding signal (z-score),[14],-0.331
same,glycan array binding signal (z-score),[15],0.145
same,glycan array binding signal (z-score),[16],-0.412
same,glycan array binding signal (z-score),[17],-0.354
same,glycan array binding signal (z-score),Gal3S(b1-3)GalNAc,-0.148
same,glycan array binding signal (z-score),Gal3S(b1-3)GlcNAc,-0.121
same,glycan array binding signal (z-score),[18],-0.135
same,glycan array binding signal (z-score),Gal3S(b1-4)Glc,-0.053
same,glycan array binding signal (z-score),Gal3S(b1-4)Glc6S,4.24
same,glycan array binding signal (z-score),Gal3S(b1-4)GlcNAc,-0.209
same,glycan array binding signal (z-score),Gal3S(b1-4)GlcNAc6S,4.02
same,glycan array binding signal (z-score),Gal3S6S(b1-4)GlcNAc,4.4
same,glycan array binding signal (z-score),Gal3S6S(b1-4)GlcNAc6S,4.74
same,glycan array binding signal (z-score),Gal4S(b1-4)GlcNAc,-0.111
same,glycan array binding signal (z-score),Gal4S6S(b1-4)GlcNAc,2.97
same,glycan array binding signal (z-score),Gal6S(b1-4)Glc,0.126
same,glycan array binding signal (z-score),Gal6S(b1-4)Glc6S,3.17
same,glycan array binding signal (z-score),Gal6S(b1-4)GlcNAc,0.153
same,glycan array binding signal (z-score),GalNAc(a1-3)Gal,-0.436
same,glycan array binding signal (z-score),GalNAc(a1-3)GalNAc,-0.483
same,glycan array binding signal (z-score),[19],-0.372
same,glycan array binding signal (z-score),GalNAc(b1-3)GalNAc,-0.372
same,glycan array binding signal (z-score),GalNAc(b1-4)GlcNAc,-0.434
same,glycan array binding signal (z-score),Glc(a1-4)Glc,-0.318
same,glycan array binding signal (z-score),Glc(a1-6)Glc(a1-6)Glc,-0.335
same,glycan array binding signal (z-score),Glc(b1-4)Glc,-0.093
same,glycan array binding signal (z-score),Glc(b1-6)Glc,0.039
same,glycan array binding signal (z-score),GlcA(b1-3)Gal,-0.086
same,glycan array binding signal (z-score),GlcA(b1-6)Gal,-0.047
same,glycan array binding signal (z-score),[20],-0.426
same,glycan array binding signal (z-score),[21],-0.352
same,glycan array binding signal (z-score),[22],-0.412
same,glycan array binding signal (z-score),[23],-0.206
same,glycan array binding signal (z-score),GlcNAc(b1-3)Gal,0.278
same,glycan array binding signal (z-score),[24],-0.421
same,glycan array binding signal (z-score),GlcNAc(b1-3)Gal(b1-4)Glc,-0.39
same,glycan array binding signal (z-score),[25],0.568
same,glycan array binding signal (z-score),[26],-0.296
same,glycan array binding signal (z-score),GlcNAc(b1-3)GalNAc,-0.464
same,glycan array binding signal (z-score),[27],-0.396
same,glycan array binding signal (z-score),[28],-0.337
same,glycan array binding signal (z-score),[29],-0.391
same,glycan array binding signal (z-score),[30],-0.413
same,glycan array binding signal (z-score),[31],-0.39

# Source: the supplement of paper PMC8728848
